The full ranking holds about 33,000 sequences; the median of “E-score (-0.5 to 0.5)” is about -0.035, and the highest 2% start at about 0.34. This is one part of the list.
Each sequence was assayed against T1, Mot3 (UniProt P54785) (assay: PBM E-score (8-mer binding enrichment) (E-score (-0.5 to 0.5)); higher = stronger / more preferred TF binding; most listed sequences are background and not binding sites). Conditions: protein concentration: 200 nM; construct: GST-full length.
T1 sequence: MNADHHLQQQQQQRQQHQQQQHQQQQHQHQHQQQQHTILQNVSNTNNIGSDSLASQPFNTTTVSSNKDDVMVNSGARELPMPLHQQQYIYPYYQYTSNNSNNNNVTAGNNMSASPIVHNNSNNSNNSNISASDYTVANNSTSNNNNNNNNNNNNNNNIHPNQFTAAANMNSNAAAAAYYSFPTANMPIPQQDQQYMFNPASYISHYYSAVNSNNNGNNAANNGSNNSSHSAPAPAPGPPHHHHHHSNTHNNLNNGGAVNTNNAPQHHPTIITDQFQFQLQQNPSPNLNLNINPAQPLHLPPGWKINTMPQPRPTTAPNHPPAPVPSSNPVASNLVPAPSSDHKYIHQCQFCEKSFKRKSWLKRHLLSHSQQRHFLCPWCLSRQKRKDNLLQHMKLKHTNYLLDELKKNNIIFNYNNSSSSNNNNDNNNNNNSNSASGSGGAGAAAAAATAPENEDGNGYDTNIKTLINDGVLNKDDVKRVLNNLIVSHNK
Description: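 Universal 'all 10-mer' protein binding microarrays (Agilent AMADID 015681) probed with GST-tagged S. cerevisiae TFs (full-length or DBD) made by in vitro transcription/translation (PURExpress), about 100-200 nM. Bound TF was detected with fluorescent anti-GST. Each ungapped 8-mer (which stands for itself and its reverse complement) is scored by the PBM enrichment score (E-score), a modified Wilcoxon-Mann-Whitney statistic from -0.5 to +0.5, computed with the Universal PBM Analysis Suite. Scale: above 0.35 generally sequence-specific binding.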
For ACCCACGG, the “PBM E-score” value was -0.199. With ACGTGGCA the “PBM E-score” value was 0.0363. ACACTACG was tested, and the “PBM E-score” value was 0.143. For CAATTGTC, the “PBM E-score” value was -0.161. With AGTGTCGA the “PBM E-score” value was -0.198. In the case of GACTTATA, the “PBM E-score” value was -0.00534. GCATTGTA was tested, and the “PBM E-score” value was 0.243. In the case of ATCTCGGA, the “PBM E-score” value was -0.221. With GGTGACTA the “PBM E-score” value was 0.138. CCTGATGC was tested, and the “PBM E-score” value was 0.0872. For AACCCATT, the “PBM E-score” value was -0.0634. For ACGGCTAG, the “PBM E-score” value was -0.175. CGGCCAGA was tested, and the “PBM E-score” value was -0.322. In the case of ACTGTATG, the “PBM E-score” value was -0.061. In the case of CGTACGGC, the “PBM E-score” value was -0.232. For ATATAACG, the “PBM E-score” value was 0.102. For CAATATAA, the “PBM E-score” value was 0.0511. For TGCGAGCA, the “PBM E-score” value was -0.177. CGTGTAGA was tested, and the “PBM E-score” value was 0.414. With CACGTCAC the “PBM E-score” value was -0.0083. In the case of GGGATCCA, the “PBM E-score” value was -0.256. CCCGAGAA was tested, and the “PBM E-score” value was -0.146. In the case of ATTGAACA, the “PBM E-score” value was 0.184. For ATACCCAG, the “PBM E-score” value was -0.244. For AGGTGACG, the “PBM E-score” value was 0.0754. With AAGAGTCG the “PBM E-score” value was 0.00387. In the case of ATATGAGG, the “PBM E-score” value was -0.235. For ATTGTCGC, the “PBM E-score” value was -0.0729. For CGCGCGTC, the “PBM E-score” value was 0.0273. With CGCAGCGA the “PBM E-score” value was -0.212. For CGCAGGCC, the “PBM E-score” value was 0.123. With GAAACGGA the “PBM E-score” value was -0.122. With CGAAGCCC the “PBM E-score” value was -0.112. For GGCCACAA, the “PBM E-score” value was -0.163. For AAGCAGTG, the “PBM E-score” value was 0.0592. For CGGCTAAG, the “PBM E-score” value was -0.249. With CTCGAGGC the “PBM E-score” value was 0.0765. AAAGCTAG was tested, and the “PBM E-score” value was -0.114. CCGGCACG was tested, and the “PBM E-score” value was -0.0224. In the case of GGGTCCCA, the “PBM E-score” value was -0.183. For CCCCGCAG, the “PBM E-score” value was -0.165. ACGAAAAA was tested, and the “PBM E-score” value was 0.097. CCTCTATA was tested, and the “PBM E-score” value was -0.0637. With AGAATTAT the “PBM E-score” value was -0.0236. ACGTCGGA was tested, and the “PBM E-score” value was -0.0848. ACAGCTGA was tested, and the “PBM E-score” value was -0.0621. For ACCAACCC, the “PBM E-score” value was -0.0689. CTGTGCCA was tested, and the “PBM E-score” value was -0.106. With CGCTCCCG the “PBM E-score” value was -0.144. In the case of CGCGCCGC, the “PBM E-score” value was -0.0135. With CATGGACG the “PBM E-score” value was 0.00506. GGAGCTGA was tested, and the “PBM E-score” value was -0.108. ACTGCTCC was tested, and the “PBM E-score” value was -0.264. With AGTCGGGC the “PBM E-score” value was 0.0557. CTAAGCTA was tested, and the “PBM E-score” value was -0.208. For AAGTCACC, the “PBM E-score” value was 0.0807. CTTCCTCC was tested, and the “PBM E-score” value was -0.236. With AGGTTCAG the “PBM E-score” value was -0.065. For CTTAAAAA, the “PBM E-score” value was 0.0623. In the case of AACGCGTG, the “PBM E-score” value was 0.267. AAATCAGG was tested, and the “PBM E-score” value was 0.127. In the case of CCAGAGGA, the “PBM E-score” value was -0.253. For ACACGAGG, the “PBM E-score” value was 0.266. CCGAACGC was tested, and the “PBM E-score” value was -0.115. With GATGGTCA the “PBM E-score” value was -0.226. For AAGGGTAA, the “PBM E-score” value was -0.0154. In the case of GAATGGAA, the “PBM E-score” value was 0.0423. For GGATCGGA, the “PBM E-score” value was 0.0257. In the case of TGCAAGAA, the “PBM E-score” value was 0.202. CCTCCGAG was tested, and the “PBM E-score” value was -0.153. CTGAACAA was tested, and the “PBM E-score” value was 0.199. For CTTAGATC, the “PBM E-score” value was 0.0918. In the case of CGAAATCG, the “PBM E-score” value was -0.165. With AGGAGTCC the “PBM E-score” value was -0.169. With ATGGGTGC the “PBM E-score” value was 0.0983. With CTTCGTGA the “PBM E-score” value was 0.0492. In the case of AGCACACA, the “PBM E-score” value was 0.041. In the case of CTGCACAA, the “PBM E-score” value was 0.111. For CAACCGAC, the “PBM E-score” value was 0.0207. In the case of AGGATCTC, the “PBM E-score” value was -0.222. AAACACTC was tested, and the “PBM E-score” value was -0.052. With AAGCAGGC the “PBM E-score” value was 0.173. In the case of CTGTTCCA, the “PBM E-score” value was -0.0726. In the case of GACTGTTA, the “PBM E-score” value was -0.0148. In the case of TCTGCACA, the “PBM E-score” value was 0.0104. With CCGAGTTA the “PBM E-score” value was -0.022. ACCCGGCT was tested, and the “PBM E-score” value was -0.0639. With GACGGCCC the “PBM E-score” value was -0.383. In the case of TCGGCACA, the “PBM E-score” value was -0.25. ATCATCCG was tested, and the “PBM E-score” value was -0.194. CCTGCGCG was tested, and the “PBM E-score” value was 0.123. CCGCCTCA was tested, and the “PBM E-score” value was -0.184. For CATCCTTA, the “PBM E-score” value was 0.0873. AGAAGGGG was tested, and the “PBM E-score” value was -0.228. For GGCCGTCA, the “PBM E-score” value was -0.358. For GAAATCTC, the “PBM E-score” value was -0.0926. For CTCTTGGA, the “PBM E-score” value was -0.121. In the case of ATTGACTA, the “PBM E-score” value was -0.0876. In the case of CCAGGGAG, the “PBM E-score” value was -0.12. For GTCTCCCA, the “PBM E-score” value was -0.157. For ACGCTCTG, the “PBM E-score” value was -0.0722. For CCACCATA, the “PBM E-score” value was -0.17. In the case of ATTTGATG, the “PBM E-score” value was 0.0601. In the case of ACGTTAAC, the “PBM E-score” value was 0.25. CGAAGATA was tested, and the “PBM E-score” value was -0.108. ACATTCAC was tested, and the “PBM E-score” value was 0.16. In the case of CACCGCTC, the “PBM E-score” value was -0.252. ACTTTGAA was tested, and the “PBM E-score” value was -0.173. In the case of GTCGAACA, the “PBM E-score” value was 0.0718. For CAGTAGTC, the “PBM E-score” value was -0.212. In the case of ACTTAGCG, the “PBM E-score” value was 0.0555. AGGCAAAC was tested, and the “PBM E-score” value was 0.482. With ATAAGGGC the “PBM E-score” value was -0.015. In the case of ATCACCAC, the “PBM E-score” value was -0.158. In the case of CCTTCTCG, the “PBM E-score” value was 0.0264. With CAGAGAGG the “PBM E-score” value was -0.295. For GGAGTGAC, the “PBM E-score” value was 0.0443. GTGCACGA was tested, and the “PBM E-score” value was 0.0362. ATGATATG was tested, and the “PBM E-score” value was 0.106. ATTTGACC was tested, and the “PBM E-score” value was -0.118. ACACAGTA was tested, and the “PBM E-score” value was 0.278. With AAGTCTAG the “PBM E-score” value was -0.261. ACCATGAC was tested, and the “PBM E-score” value was -0.0808. With GCGGAAAA the “PBM E-score” value was -0.0405. AAGACAAC was tested, and the “PBM E-score” value was 0.032. With GCAAGGAC the “PBM E-score” value was -0.0881. For GCACCTGA, the “PBM E-score” value was 0.0666. In the case of AGATGAGA, the “PBM E-score” value was -0.147. For CTGATATC, the “PBM E-score” value was 0.00984. AATCTAAA was tested, and the “PBM E-score” value was 0.107. With ACAGAACT the “PBM E-score” value was -0.0328. AACGATGG was tested, and the “PBM E-score” value was -0.148. For ACCCTGAT, the “PBM E-score” value was -0.0337. In the case of AATATGAC, the “PBM E-score” value was 0.0135. With CCTATTAA the “PBM E-score” value was 0.273. With ACCGTTAG the “PBM E-score” value was -0.00592. For AGCCAATG, the “PBM E-score” value was -0.165. For CAGATAAC, the “PBM E-score” value was 0.047. CTCTCAGA was tested, and the “PBM E-score” value was -0.0822. In the case of ACTCGTGG, the “PBM E-score” value was -0.064. In the case of AATTATTG, the “PBM E-score” value was 0.11. With CCCTGCCG the “PBM E-score” value was -0.377. With GAGGAGGA the “PBM E-score” value was -0.158. For GTGTCGTA, the “PBM E-score” value was 0.203. For ACCGGTAA, the “PBM E-score” value was -0.164. In the case of CCACGGGG, the “PBM E-score” value was -0.197. With CCGCCAAC the “PBM E-score” value was -0.231. GTGAGAAA was tested, and the “PBM E-score” value was -0.13. GTTAGAAA was tested, and the “PBM E-score” value was 0.0575. In the case of AAACAACC, the “PBM E-score” value was 0.103. In the case of AAAGAGTT, the “PBM E-score” value was -0.0531. For CCCGCATA, the “PBM E-score” value was -0.0498. In the case of GCCGTACA, the “PBM E-score” value was 0.0115. ATTTCTGC was tested, and the “PBM E-score” value was 0.0635. With CTTAAGCA the “PBM E-score” value was 0.104. AGAGAGGA was tested, and the “PBM E-score” value was -0.246. For GTCGGTCA, the “PBM E-score” value was -0.239. For ATTCAGAG, the “PBM E-score” value was -0.077. CACGAGAC was tested, and the “PBM E-score” value was -0.0972. CCGAACTA was tested, and the “PBM E-score” value was 0.0366. In the case of AGAATCGA, the “PBM E-score” value was -0.245. In the case of CGTATCAG, the “PBM E-score” value was 0.0545. For AAACGGTT, the “PBM E-score” value was 0.00323. For CGGGTCAC, the “PBM E-score” value was -0.293. For ACGCCTAG, the “PBM E-score” value was 0.0792. With AAAGTCCG the “PBM E-score” value was -0.134. With AACTTGGT the “PBM E-score” value was 0.0776. AGACTGAA was tested, and the “PBM E-score” value was -0.159. With CCCGTTCG the “PBM E-score” value was -0.208. With ACCTCCAT the “PBM E-score” value was -0.162. For ACACGCGA, the “PBM E-score” value was 0.292. In the case of CTTATGTA, the “PBM E-score” value was 0.342.

From the supplement of paper PMC3334620
